First the molecules themselves.
B1: CPEB3 Ribozyme (parent)
chain: UAACAGGGGGCCACAGCAGAAGCGUUCACGUCGCAGCCCCUGUCAGAUUCUGGUGAAUCUGCGAAUUCUGCUGUAUAUCUC

Read counts are not given, so values of variants with three or more changes are uncertain.

Variants of B1 are the subject of this data set. Description: self-cleavage, relative activity (ratio to wild type); higher = more cleavage; in vitro, sequencing. The procedure, abridged: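 For each CPEB3 ribozyme variant, relative activity is its cleaved/total read fraction divided by the unmutated ribozyme's. Barcoded error-prone PCR libraries were transcribed by T7 RNA polymerase (5 hours, 37°C) and held in DNase I for 15 min before an EDTA stop, with cleavage occurring throughout. Template-switching reverse transcription and Illumina sequencing were used to read the RNAs. A 5-read minimum applied, and results are the mean of three batches.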
With A13U A15G A18U A21C C34U U67A, the self-cleavage was 0.15.

With A13U A18G A65G, the self-cleavage worked out at 0.26.

As to C14A A18U U43C U49A, the self-cleavage was 0.23.

For A13U G24A U26C U54C C62U, the self-cleavage was found to be 0.06.

A13U A35U A64U U67G U69A: the self-cleavage was 0.08.

For A13U A18G U51A A77U, the self-cleavage came to 0.59.

Regarding A13U U43C C59U, the self-cleavage turned out to be 0.4.

With A13G U43C A75U U80C, the self-cleavage was 0.68.

With A13G U31A A47G, the self-cleavage was determined as 0.39.

Consider A13U A35G U51C U80C, for which the self-cleavage was 1.25.

With A13U A20G C29U, the self-cleavage is 0.19.

A13U A15U A64U: the self-cleavage is 0.21.

Consider A13U U43A U80C, for which the self-cleavage is 1.28.

Consider A13G U67A U69A, for which the self-cleavage came out at 0.06.

For A13U U31A U51G U76A, the self-cleavage was 0.88.

With A13U U41C U54G, the self-cleavage was 0.95.

Consider A13U C14U G42A U48A U69A, for which the self-cleavage was found to be 0.17.

For A13U U48C U49C U67A U69C, the self-cleavage was determined as 0.17.

As for A13G U43C U51A C62U U72C, the self-cleavage was 0.12.

For A13U A15U U25C G33C A75G U78C, the self-cleavage is 0.03.

Take A13U C17U C37A G52C: the self-cleavage is 0.13.

As to A13U A15G A20G U67C, the self-cleavage came out at 0.48.

With A13U A20U A28G U54C C79A, the self-cleavage worked out at 0.11.

With A13G U26C U41C U49A U51C A56U A57G, the self-cleavage is 0.08.

As to A13U C40U U41A A45U U72A U78C, the self-cleavage worked out at 0.05.

As to A13U U69C U78C, the self-cleavage came to 0.82.

As to A13U A28G U41A A47U U78C, the self-cleavage turned out to be 0.05.

Regarding A13U U48C A56G U72C, the self-cleavage turned out to be 0.41.

For A13U C17U U48C U51C G55C U72C U80A, the self-cleavage amounted to 0.13.

For A13U A18U C39U, the self-cleavage amounted to 0.1.

Take A13U A21G A28G U66C U78C: the self-cleavage was determined as 0.63.

Consider A13G U31C C40A C44A U69A U80C, for which the self-cleavage was found to be 0.35.

Consider A13U U25C U26C U58C, for which the self-cleavage was found to be 0.33.

Take A13U C38U U72C: the self-cleavage is 1.21.

Take A13G U26C U60A U72C: the self-cleavage is 0.44.

Regarding A13U A20G U60A A77C, the self-cleavage worked out at 0.18.

Turning to A13U A15U C23G A28U C62A U78A, the self-cleavage worked out at 0.06.

A13U A20G G46A: the self-cleavage turned out to be 0.26.

As for A13U U26C A57G U69C U80C, the self-cleavage turned out to be 0.05.

A13U A18U C37U U41C A45C U67G: the self-cleavage amounted to 0.09.

A13U U26C A57G: the self-cleavage came to 0.45.

Take A13U A18G A64G: the self-cleavage is 0.81.

A13U A57G U69C U72C U78A U80A: the self-cleavage is 0.43.

Consider A13G U43A U51C G52U U60A, for which the self-cleavage turned out to be 0.27.

A13U C32U C37G: the self-cleavage worked out at 0.15.

As to A13U U41A G52A, the self-cleavage came out at 0.34.

With A13U U26C U31C U60C A75G, the self-cleavage worked out at 0.14.

A13G U31C U41A U72C: the self-cleavage came to 0.2.

For the variant A13U G42A U48C G61A, the self-cleavage turned out to be 0.11.

A13U U41C U51C A57G U72A U76C: the self-cleavage was 0.34.

As to A13G U78C U80C, the self-cleavage turned out to be 0.52.

Turning to A13U A35U U41G, the self-cleavage is 0.14.

As to A13U A35U U41A, the self-cleavage was 0.19.

As for A13G U48C U72A, the self-cleavage amounted to 0.2.

Consider A13U A15G G16U A20G, for which the self-cleavage was determined as 0.54.

For A13G U51A A57G U58C G63C A64G U78A, the self-cleavage came to 0.21.

Regarding A13U C32U U43C U80C, the self-cleavage came out at 0.26.

For the variant A13G U48G U76C, the self-cleavage turned out to be 0.41.

Regarding A13U U54C G70A, the self-cleavage came out at 0.26.

For A13G U31A U43C, the self-cleavage is 0.21.

On to A13U U25C U41C U69C, for which the self-cleavage turned out to be 0.06.

A13U U26C A35G A47G A64U U72A: the self-cleavage worked out at 0.07.

On to A13U C14U G16U U31A C62U, for which the self-cleavage was 0.2.

With A13U A28G U49C A57G U72A, the self-cleavage was 0.13.

On to A13U A15G A35U, for which the self-cleavage was 0.35.

Take A13G U31C C37G C38G C44A: the self-cleavage was 0.02.

Take A13U G30U U41A U72A: the self-cleavage was found to be 0.04.

With A13U G24A A28U U41A, the self-cleavage came to 0.1.

Turning to A13G U54A G61A U80C, the self-cleavage turned out to be 0.63.

Regarding A13U C37U U54A, the self-cleavage was found to be 1.01.

As to A13U U26C U41A A64U U72C, the self-cleavage was found to be 0.06.

Turning to A13G U43C A45G, the self-cleavage came to 0.36.

As to A13U U43C U72C U80G, the self-cleavage was found to be 0.49.

Turning to A13U A28G U74C A75G, the self-cleavage was determined as 1.11.

On to A13G U41C U48A, for which the self-cleavage worked out at 0.19.

Consider A13U A20G A47G U54A G63A, for which the self-cleavage turned out to be 0.68.

Take A13U A21G U25C A57G A77G: the self-cleavage was determined as 0.05.

In the case of A13G U67C G70A U80C, the self-cleavage worked out at 0.17.

As to A13U A20U A47G U60A U69A U72C U78C, the self-cleavage stood at 0.05.

As to A13U U25C U31C A35G, the self-cleavage was 0.29.

Regarding A13G U26C A64U, the self-cleavage amounted to 0.15.

For the variant A13G U26C A64G, the self-cleavage amounted to 0.32.

Consider A13U C27A U51G U58C, for which the self-cleavage amounted to 0.11.
